# Source: the supplement of paper PMC10126150
# Values marked as one replicate rest on one cluster of the flow cell; about a third of the high ones do not repeat.
# System: ATP
# Assay: switch fluorescence ratio, 500 uM ATP over buffer (Cy3 cluster intensity, sum of 5 cycles each) (fold (ratio)); higher = stronger signal-on switching upon ATP binding; sequences stand for … in TCGTCGGCAGCGTCAGATGTGTATAAGAGACAGTTTTTTTTTTTTTTTTTTTTTTTTT…TC
# Conditions: aptamer strand: ATP DNA aptamer (quencher-CACCTGGGGGAGTATTGCGGAGGAAGG + anchor), 100 nM annealed; ATP concentration: 500 uM; one replicate
# Outline: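 Switching-strand clusters labelled with Cy3 on a modified Illumina MiSeq flow-cell were annealed to 100 nM quencher-labelled ATP aptamer, imaged in selection buffer, and re-imaged after 15 min with 500 uM ATP at 22 °C. This was done over five cycles with NaOH stripping and re-annealing in between. The fluorescence ratio is summed target-cycle over summed buffer-cycle Cy3 intensity per cluster, averaged per switch-domain sequence, excluding clusters outside 100-1000 RFU.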
# 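Also: ATP exposure 15 min at 22 °C before imaging.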
row,Sequence,switch fluorescence ratio
1,TATTTGGCG,0.928
2,TATTTGGTTC,1
3,TATTTGTAGA,1.04
4,TATTTTATAG,1.04
5,TATTTTGAC,1
6,TATTTTTAG,0.991
7,TATTTTTATG,0.963
8,TATTTTTGG,0.989
9,TCAAAAAACT,1.07
10,TCAAAATGGT,0.99
11,TCAAACTAAC,1.05
12,TCAAAGATTG,1
13,TCAAAGATTT,1.03
14,TCAAAGCATA,1.43
15,TCAAAGCCCC,1.06
16,TCAAATAAA,0.982
17,TCAAATGGAA,1.02
18,TCAAATGTAA,1.01
19,TCAAATTAAT,0.993
20,TCAACAATTG,1.01
21,TCAACCCGTA,0.978
22,TCAACTTATC,1.04
23,TCAACTTG,1.03
24,TCAAGACCA,0.988
25,TCAAGATCAG,1.01
26,TCAAGCACA,1.29

row,Sequence,switch fluorescence ratio
1,TCAAGCTCAG,1.02
2,TCAAGGCCTT,1.01
3,TCAAGGGATG,1.01
4,TCAAGGGC,1.06
5,TCAAGTTATG,1.02
6,TCAAGTTTAC,0.996
7,TCAATAAGCC,1.02
8,TCAATCATGA,1.06
9,TCAATCATTG,1.02
10,TCAATGCGGG,1.01
11,TCAATGGA,1.03
12,TCACAACATG,0.961
13,TCACAACATT,1.07
14,TCACAAGACG,1.01
15,TCACACCTGG,1.06
16,TCACAGGTGT,6.98
17,TCACCAGATA,1.02
18,TCACCCTAAT,1.06
19,TCACCCTATT,1.09
20,TCACCGAGAG,1
21,TCACCGATGG,0.98
22,TCACCGTACG,1.58
23,TCACCTCGAG,0.969
24,TCACGAAAAC,1.34
25,TCACGAACAT,1.33
26,TCACGGACAC,1.33

row,Sequence,switch fluorescence ratio
1,TCACGGATC,1.05
2,TCACGGCGAT,1.2
3,TCACGGTGAC,1.17
4,TCACTAACCG,1.1
5,TCACTAGATT,1.03
6,TCACTC,1.05
7,TCACTCGGAT,1.08
8,TCACTCTCTG,1.01
9,TCACTGCACA,1.55
10,TCACTGGAGT,0.971
11,TCACTGTAAC,1.23
12,TCACTTAAAT,1.01
13,TCACTTAATG,0.958
14,TCACTTAC,1.46
15,TCACTTTGCC,0.952
16,TCACTTTTCA,0.993
17,TCAGAAAAAT,1.05
18,TCAGAAAGCT,1.3
19,TCAGAACATT,0.99
20,TCAGACATCT,0.986
21,TCAGACCGCG,0.998
22,TCAGAGCGTC,1.07
23,TCAGCAAATC,3.02
24,TCAGCAGTTG,0.949
25,TCAGCATGTT,1
26,TCAGCGCA,1.54

row,Sequence,switch fluorescence ratio
1,TCAGCGCT,0.994
2,TCAGCGGGAA,0.995
3,TCAGCTTTC,1.15
4,TCAGGAAAAC,1.05
5,TCAGGAGAGG,1.05
6,TCAGGATTCG,0.989
7,TCAGGCACGG,1.01
8,TCAGGCCGTG,1.05
9,TCAGGCGATT,1.33
10,TCAGGGCAGG,1.12
11,TCAGGGGAT,1.43
12,TCAGTACAGT,1.03
13,TCAGTATTTA,0.971
14,TCAGTCGATA,1.02
15,TCAGTCGGTC,0.997
16,TCAGTCTCA,1.01
17,TCAGTGTATA,1.1
18,TCAGTGTCGC,0.976
19,TCAGTTGATT,1.02
20,TCAGTTTCGA,1.04
21,TCAGTTTCGT,0.965
22,TCATAACGAT,0.954
23,TCATACGCCG,0.954
24,TCATACGGAG,1.04
25,TCATAGAACT,1.01
26,TCATAGAGTC,0.953

row,Sequence,switch fluorescence ratio
1,TCATAGGTAT,0.973
2,TCATAGTACT,1.02
3,TCATAGTGGA,0.99
4,TCATATATAG,0.985
5,TCATATTGGT,1
6,TCATCAGACA,0.999
7,TCATCAGCGC,0.987
8,TCATCCGCTT,2.26
9,TCATCGCCAC,1.73
10,TCATCGGTT,1.02
11,TCATCGTACC,1.21
12,TCATGATT,0.991
13,TCATGATTGA,0.984
14,TCATGCTATG,0.953
15,TCATGGCCTT,1.05
16,TCATGGGAAT,1.08
17,TCATGGGTAT,1.03
18,TCATGTATAG,0.995
19,TCATGTATCG,1.03
20,TCATTAAGA,1.01
21,TCATTATGGC,2.01
22,TCATTATTGC,1.09
23,TCATTATTGT,0.97
24,TCATTGCGCC,1.05
25,TCATTGTCGG,0.985
26,TCATTTCATC,1

row,Sequence,switch fluorescence ratio
1,TCATTTCCCC,1
2,TCATTTGCTG,1.08
3,TCATTTGTA,0.927
4,TCATTTTGAG,1.03
5,TCATTTTGGC,1.06
6,TCCAAATAAA,1
7,TCCAAATCCG,1.05
8,TCCAACGAAT,1.28
9,TCCAACGCTT,4.29
10,TCCAAGATCC,1.07
11,TCCAAGATTA,1.03
12,TCCAAGGAGC,1.05
13,TCCAATAGTT,0.986
14,TCCAATTACT,1.12
15,TCCAATTATT,0.987
16,TCCACAGGTT,1.83
17,TCCACATGAG,1.07
18,TCCACCGAA,1.77
19,TCCACCGTAA,4.09
20,TCCACCGTGA,1.01
21,TCCACGGGAC,1.35
22,TCCAGAAGGA,0.95
23,TCCAGAATGA,0.969
24,TCCAGACCAG,0.968
25,TCCAGAGTAT,1.06
26,TCCAGCGAGC,1.04

row,Sequence,switch fluorescence ratio
1,TCCAGCTCGT,1.02
2,TCCAGGATCA,0.965
3,TCCAGTACAA,1.05
4,TCCAGTCCTA,1.05
5,TCCATACAGG,1.15
6,TCCATAGAG,0.996
7,TCCATCATGT,1.01
8,TCCATCTTGT,0.952
9,TCCATGATG,1
10,TCCATGGTGG,1.03
11,TCCATGTCGC,0.985
12,TCCATGTTG,1
13,TCCCAGACGC,1.22
14,TCCCCACACC,1.17
15,TCCCCACGTT,1.07
16,TCCCCACTCA,1.09
17,TCCCCCCACG,1.19
18,TCCCCCTTCG,1.35
19,TCCCCCTTCT,1.94
20,TCCCCGAAG,1.24
21,TCCCCTCGGG,1.03
22,TCCCCTTCAA,2.1
23,TCCCCTTCGT,1.06
24,TCCCGATGTG,1.11
25,TCCCGTGATC,2.55
26,TCCCGTTGCG,1.02

row,Sequence,switch fluorescence ratio
1,TCCCTAGATC,1.08
2,TCCCTATGTG,1.32
3,TCCCTGGGTT,1.01
4,TCCCTTGCCA,1.05
5,TCCGAATGGC,1.58
6,TCCGACTCTG,0.953
7,TCCGCAGGTT,1.22
8,TCCGCATAGG,3.85
9,TCCGCATGGT,2.88
10,TCCGCTCTTG,1.76
11,TCCGCTTATG,1.59
12,TCCGGAATGT,1.71
13,TCCGGACAAT,2.95
14,TCCGGCCAAA,1.29
15,TCCGGCCGCG,1.6
16,TCCGGCGTG,1.02
17,TCCGGCGTGG,1.03
18,TCCGGCTCTC,1.1
19,TCCGGGCCGT,1.19
